The test system of the assay is Z138 cells. Kind of assay: Z138 cell proliferation assay (XTT). The format is cell-based. Particulars: Homo sapiens, Z-138, 168 h, 7 day treatment, 9-point dose response starting with 10 μM, XTT read at 465 nm. The procedure:
Z138 cells were seeded in a 96-well round-bottom plate and treated with varying concentration of compound. The final DMSO concentration was maintained at 0.05%. The selected compounds of present invention were screened in a 9-point dose response format starting with 10 μM and 1/3rd serial dilution. On the 4th day, cells were spun down and media was replaced while maintaining the initial compound concentration in each well. At the end of the 7th day, cells were spun down and media was aspirated. 50 µL of XTT containing media was added to the wells. The plates were read using the M3 spectrophotometer at 465 nm. GI50 values were calculated by fitting the dose response data to sigmoidal curve fitting equation using GraphPad Prism software V7.
The compounds were screened in the above mentioned assay procedures for determining IC50 and GI50 values in inhibiting PRMT5.
For orientation: Formazan colour is commonly taken as a measure of viable cells.

Some results are limits rather than exact numbers.

What is called GI50 is the concentration at which growth is held to half of that of the control. Higher therefore signals lower sensitivity of the cells.

The compound `O=C1N(Cc2ccc(N3CC4(COC4)C3)cn2)CCN1C[C@H](O)CN1CCc2ccccc2C1` [Compound 5, (R)-1-((5-(2-oxa-6-azaspiro[3.3]heptan-6-yl)pyridin-2-yl)methyl)-3-(3-(3,4-dihydroisoquinolin-2(1H)-yl)-2-hydroxypropyl)imidazolidin-2-one] registered a GI50 of more than 300 nM. The figure for `N#CC1CCN(c2ccc(CN3CCN(C[C@H](O)CN4CCc5ccccc5C4)C3=O)nc2)CC1` [Compound 9, (R)-1-(6-((3-(3-(3,4-dihydroisoquinolin-2(1H)-yl)-2-hydroxypropyl)-2-oxoimidazolidin-1-yl)methyl)pyridin-3-yl)piperidine-4-carbonitrile] is less than 100 nM; for `CCOC(=O)C(C)(C)C1CCN(c2ccc(CN3CCN(C[C@H](O)CN4CCc5ccccc5C4)C3=O)nc2)CC1` [Compound 13, ethyl(R)-2-(1-(6-((3-(3-(3,4-dihydroisoquinolin-2(1H)-yl)-2-hydroxypropyl)-2-oxoimidazolidin-1-yl)methyl)pyridin-3-yl)piperidin-4-yl)-2-methylpropanoate] it is 100 to 300 nM.

Compound `O=C1N(Cc2cnc(N3C4CCC3COC4)cn2)CCN1C[C@H](O)CN1CCc2ccccc2C1` [Compound 24, 1-((5-(3-oxa-8-azabicyclo[3.2.1]octan-8-yl)pyrazin-2-yl)methyl)-3-((R)-3-(3,4-dihydroisoquinolin-2(1H)-yl)-2-hydroxypropyl)imidazolidin-2-one] had a GI50 of more than 300 nM. The figure for `O=C1N(Cc2ccc(N3C4COCC3C4)cn2)CCN1C[C@H](O)CN1CCc2ccccc2C1` [Compound 29, 1-((5-(3-oxa-6-azabicyclo[3.1.1]heptan-6-yl)pyridin-2-yl)methyl)-3-((R)-3-(3,4-dihydroisoquinolin-2(1H)-yl)-2-hydroxypropyl)imidazolidin-2-one] is 100 to 300 nM; for `CC(=O)N1CCC(c2ccc(CN3CCN(C[C@H](O)CN4CCc5ccccc5C4)C3=O)nc2)CC1` [Compound 33, (R)-1-((5-(1-acetylpiperidin-4-yl)pyridin-2-yl)methyl)-3-(3-(3,4-dihydroisoquinolin-2(1H)-yl)-2-hydroxypropyl)imidazolidin-2-one] it is less than 100 nM. The figure for `O=C(C1CC1)N1CCC(c2cnc(CN3CCN(C[C@H](O)CN4CCc5ccccc5C4)C3=O)cn2)CC1` [Compound 41, (R)-1-((5-(1-(cyclopropanecarbonyl)piperidin-4-yl)pyrazin-2-yl)methyl)-3-(3-(3,4-dihydroisoquinolin-2(1H)-yl)-2-hydroxypropyl)imidazolidin-2-one] is less than 100 nM. For `CC(C)Oc1cc(-c2ccc(CN3CCN(C[C@H](O)CN4CCc5ccccc5C4)C3=O)cn2)ccn1` [Compound 67, (R)-1-(3-(3,4-dihydroisoquinolin-2(1H)-yl)-2-hydroxypropyl)-3-((2′-isopropoxy-[2,4′-bipyridin]-5-yl)methyl)imidazolidin-2-one] the value was less than 100 nM; for `CC(=O)N1C2CCC1CC(c1ccc(CN3CCN(C[C@H](O)CN4CCc5ccccc5C4)C3=O)nc1)C2` (stereo partly drawn) [Compound 72, 1-((5-(8-acetyl-8-azabicyclo[3.2.1]octan-3-yl)pyridin-2-yl)methyl)-3-((R)-3-(3,4-dihydroisoquinolin-2(1H)-yl)-2-hydroxypropyl)imidazolidin-2-one], less than 100 nM; for `CC(=O)N1C2CCC1CC(c1ccc(CN3CCN(C[C@H](O)CN4CCc5ccccc5C4)C3=O)cn1)C2` (stereo partly drawn) [Compound 73, 1-((6-(8-acetyl-8-azabicyclo[3.2.1]octan-3-yl)pyridin-3-yl)methyl)-3-((R)-3-(3,4-dihydroisoquinolin-2(1H)-yl)-2-hydroxypropyl)imidazolidin-2-one], 100 to 300 nM. `O=C1N(Cc2ccc(N3C4CCC3COC4)cn2)CCN1CC(O)CNC1Cc2ccccc2C1` (stereo not drawn) [Compound 86, 1-((5-(3-oxa-8-azabicyclo[3.2.1]octan-8-yl)pyridin-2-yl)methyl)-3-(3-((2,3-dihydro-1H-inden-2-yl)amino)-2-hydroxypropyl)imidazolidin-2-one] showed a GI50 of more than 300 nM.

Compound `O=C(c1ncc(-c2ccc(CN3CCN(C[C@H](O)CN4CCc5ccccc5C4)C3=O)cn2)cn1)N1CCCC1` [Compound 103, (R)-1-(3-(3,4-dihydroisoquinolin-2(1H)-yl)-2-hydroxypropyl)-3-((6-(2-(pyrrolidine-1-carbonyl)pyrimidin-5-yl)pyridin-3-yl)methyl)imidazolidin-2-one] registered a GI50 of 100 to 300 nM.

The values above are taken from patent US11542275B2, “Substituted imidazolidin-2-one derivatives as PRMT5 inhibitors” (Aurigene Discovery Technologies Limited, priority 2018, dated 2023).
